Source: the RNAGym collection of RNA variant scans (doi:10.7554/elife.90254)
The source gives no read counts; variants with many changes may rest on few reads.

B1: OR4K15 (parent)
chain: GUUAACGGUCAUAGGCCAUGGAAACUAGGAGCACCAUUUCGCUGCCAGUGAAGAAAUGAACAAAGAAAAUCUGGGCCAGGCAGGCAUCAAAAGAAAUAGUCUUGCGCUCAACCAGAAAGUCUGUAAUCAUUUUAAGGGUA

Variants of: B1
Experiment: self-cleavage, relative activity (ratio to wild type); higher = more cleavage; in vitro, sequencing; the parent is a self-cleaving ribozyme

Variant | self-cleavage
A52G A78G A91G | 0.07
A51U U124C A129G | 0.37
A51G U70C G84A U108A A126G | 0.01
A54G A111G A134G | 0
A54G A62U A78G A91G U103C | 0.07
A51U A68G U72C | 0.37
A52G A60G A110G | 0.06
A52G C77U U120C | 1.65
G53U U127C U130A | 0.29
A52U A59G U87A | 1.58
A54G C77U A116C | 0.37
A51G A63G A89U A135G | 1.32
A52U A59G C76G U122C | 0.02
A52U A64G G75A U108C C113G | 0.01
A51G A86G U108C | 0.03
A51G U87C U124C A125G | 0.27
A51G A90G G106U | 0
A52G A55G A63U U70C U122C | 0.18
A52G A64G U100C A129G | 2.73
A54G C107U A110C U124C | 0.01
A51U A68G A92G A116G U120A | 0.37

Variant | self-cleavage
A54G U87A U132A | 0.22
A52U A67G A111U | 0.14
A52G C77U A78G | 0.29
A54G A64G A111G | 0
A51G A62G A67U A98C U100C U103C | 2.61
G53U A59G A86G A90G | 0.61
A51U A111G A118G | 0
A54G A67G A96U A110U U122C | 1.14
A52G A54G A89G A118G | 1.01
A54G A64G U131C U132C | 1.07
A54G U70A A110G A116U | 0.03
A54G A68G A69G | 0.55
A52G A59U U124A | 1.03
A52U U57C A63G A114G | 0.16
A51U A54G A78U A126G | 0.1
A52G A59G A96G | 1.9
A51U A114U G115U | 0
A51G A95G A110G U130C | 0.37
A54G A66G U97A G123A | 1.56
A52G A78G U97C | 0.2
A51G A64G A69U A86G | 0.92

Variant | self-cleavage
A51G U127A A135U | 1.44
A51U A64G A114G | 0.13
A54G U102C G104U | 0.06
A52G U102C A111G A140G | 0.02
A52U U72G G83C | 0.35
A54G G65A A94U U120A | 2.21
A51U A52G A60G | 0.34
A51G A95C U122C | 0.52
A54G U100A A118G | 2
A51U A67G U132C | 1.37
A52G U57A A118C U131C | 0.59
A52G A82G A110U | 0.7
A54G A114U U124G | 0.02
A51G A62G A82G A117G | 0.45
A52U A54U A55G A69G A78U U100C A110G | 0.08
A52G A67G A78G G83A U139C | 0.22
A52U U57C C105U U122C | 0.07
A54G A62G A114C | 0.02
A51G U72C G74A A86U U132C | 0.09
A51G A91G U108C A118G | 0.01
A52G A62U A92G A118U | 1.24

Variant | self-cleavage
A52G A54G A140U | 1.19
A52G A116C U132C | 0.06
A54G A62G A67U U70C U103A U131C U132C | 0.08
A52U A69G A118U A125G | 0.28
A54G A63G U132C | 1.44
A52G A90U U130C A135U | 0.79
A51G U108A U132C | 0
A54G A56G A91G U122C A126G U132C | 0.9
A51U A110G U124C | 0.09
A54G A63G A91G A118U | 0.83
G53U A67G U97A | 1.97
A52G A89C U108A | 0.01
A51G G83A U87C | 1.61
A52G U108C A126G | 0
A54G A62G A91G | 1.44
A51G U87C U122A | 1.14
A51G A62G A91G | 1.44
A51G A67G G83A | 1.77
A51G A91G A117C | 0.93
A52G A64G A98G A111G | 0.03
